# Data published in the BET-seq Pho4 binding data (Le et al. 2018).
# The other results are listed elsewhere or left out. The energies were worked out here from pooled read counts, against the library average; single values are noisy.
# Target: T1, Pho4 (S. cerevisiae) (UniProt P07270)
# T1 sequence: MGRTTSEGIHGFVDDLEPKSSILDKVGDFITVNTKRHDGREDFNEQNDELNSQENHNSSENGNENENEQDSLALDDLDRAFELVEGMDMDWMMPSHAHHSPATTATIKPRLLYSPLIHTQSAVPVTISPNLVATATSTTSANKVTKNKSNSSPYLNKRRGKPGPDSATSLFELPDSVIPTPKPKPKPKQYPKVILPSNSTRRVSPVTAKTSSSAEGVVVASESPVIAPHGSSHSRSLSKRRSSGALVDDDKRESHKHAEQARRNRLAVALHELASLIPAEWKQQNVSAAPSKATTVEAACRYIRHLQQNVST
# Assay: relative binding free energy (BET-seq); higher = weaker binding
# Details: reference: library average
row,Sequence,relative binding free energy
1,AGAGTCACGTGTAAGA,0.24 kcal/mol
2,TTCTACACGTGATGTG,0.06 kcal/mol
3,CTGGTCACGTGTTGGA,0.08 kcal/mol
4,CGTGTCACGTGTGAGT,0.05 kcal/mol
5,GTGGGCACGTGTAAAA,0.14 kcal/mol
6,GAGGTCACGTGCTAAT,0.39 kcal/mol
7,TGCTACACGTGGAGGT,0.02 kcal/mol
8,GTAGTCACGTGTAGTC,0.17 kcal/mol
9,GTTCGCACGTGGCGTG,-0.17 kcal/mol
10,TACATCACGTGATGTG,0.12 kcal/mol
11,ACGTGCACGTGGGCTG,-0.15 kcal/mol
12,GTTGACACGTGCAGGC,0.12 kcal/mol
13,AGGGTCACGTGTCGTT,0.15 kcal/mol
14,GGTTTCACGTGACATG,0.2 kcal/mol
15,GGACCCACGTGGGTTG,-0.09 kcal/mol
16,TTTCTCACGTGCTGGT,0.22 kcal/mol
17,GGAGTCACGTGTGTAC,0.2 kcal/mol
18,TGTGGCACGTGCAAGT,-0.14 kcal/mol
19,GTGGTCACGTGTGTAT,0.28 kcal/mol
20,AAGCTCACGTGTTGGT,0.23 kcal/mol
21,TGGAGCACGTGGTGCA,-0.11 kcal/mol
22,AGCAGCACGTGGGGGT,-0.28 kcal/mol
23,GTGATCACGTGAATGT,0.09 kcal/mol
24,TAGGTCACGTGGGGCC,-0.04 kcal/mol
25,TCTGGCACGTGGAGAT,-0.13 kcal/mol
26,TACTTCACGTGTTTAG,0.27 kcal/mol

row,Sequence,relative binding free energy
1,GTGGACACGTGCGGGT,0.05 kcal/mol
2,ATTTTCACGTGTTAGC,0.29 kcal/mol
3,GTGGTCACGTGGGTAT,0.04 kcal/mol
4,CCTGTCACGTGTAGGT,0.19 kcal/mol
5,GACGGCACGTGGATGG,-0.06 kcal/mol
6,AGGCTCACGTGGTTTC,0.37 kcal/mol
7,TGAAGCACGTGGATAG,-0.11 kcal/mol
8,CGTGTCACGTGGGTAT,-0.1 kcal/mol
9,TAGTCCACGTGTGGTT,0.18 kcal/mol
10,TGGTCCACGTGTGTTC,0.12 kcal/mol
11,TATATCACGTGTCGCG,0.28 kcal/mol
12,TGGTACACGTGGAATT,0.27 kcal/mol
13,GGTTGCACGTGTGAGC,0.16 kcal/mol
14,TGGAGCACGTGTAGAA,-0.12 kcal/mol
15,CGGGGCACGTGGGCGA,-0.18 kcal/mol
16,GAGGGCACGTGGTATA,-0.18 kcal/mol
17,CATTACACGTGGTGGT,0.01 kcal/mol
18,ATAAGCACGTGCTTTA,0.01 kcal/mol
19,TGTAGCACGTGGCTAG,-0.17 kcal/mol
20,TGCCGCACGTGGGAGG,-0.32 kcal/mol
21,TGTCACACGTGGTGTT,-0.01 kcal/mol
22,GTTGACACGTGAGGCG,0.19 kcal/mol
23,GTGGTCACGTGTAGAC,0.23 kcal/mol
24,TTTTACACGTGGTTCG,0.1 kcal/mol
25,TATTACACGTGGGTCG,-0.15 kcal/mol
26,AATAGCACGTGTAGGG,-0.11 kcal/mol

row,Sequence,relative binding free energy
1,TGTAACACGTGTTAAT,0.04 kcal/mol
2,AGATTCACGTGATGTT,0.26 kcal/mol
3,GGTTACACGTGTGATT,0.27 kcal/mol
4,TGATTCACGTGGGCCT,0.12 kcal/mol
5,TTATGCACGTGATACG,-0.02 kcal/mol
6,GACTGCACGTGTTGTA,0.12 kcal/mol
7,GGCGCCACGTGAGGTG,0.1 kcal/mol
8,GGAAGCACGTGTCGGT,0.13 kcal/mol
9,ATGCTCACGTGTTATA,0.19 kcal/mol
10,ATGCACACGTGGCGGT,0.04 kcal/mol
11,AGAGTCACGTGAGGTT,0.27 kcal/mol
12,AGGTTCACGTGTACTT,0.25 kcal/mol
13,TGGCGCACGTGATTGG,-0.02 kcal/mol
14,GTGAGCACGTGTGTGG,0.01 kcal/mol
15,GTTAGCACGTGTTTGA,0.08 kcal/mol
16,TGGATCACGTGAGAAT,0.34 kcal/mol
17,TTGCACACGTGAGGGT,0.2 kcal/mol
18,GATGGCACGTGGCTTT,0.09 kcal/mol
19,GGATTCACGTGTTAGA,0.21 kcal/mol
20,ATTGTCACGTGGAAGC,-0.01 kcal/mol
21,GTGGTCACGTGCGGCA,0.21 kcal/mol
22,GTCTGCACGTGTGTCG,0 kcal/mol
23,CGCGTCACGTGTTGAG,0.11 kcal/mol
24,TTGTGCACGTGAGAAT,0.41 kcal/mol
25,GGGATCACGTGGGTGT,0.17 kcal/mol
26,TGAGGCACGTGGGCTG,-0.28 kcal/mol

row,Sequence,relative binding free energy
1,TGTGCCACGTGTGGTA,-0.11 kcal/mol
2,GTATTCACGTGCGTGA,0.13 kcal/mol
3,GAATTCACGTGAGGAG,0.38 kcal/mol
4,TTAAGCACGTGGCTGT,-0.05 kcal/mol
5,ACATACACGTGGGTGT,-0.14 kcal/mol
6,GGATGCACGTGTCCGT,0.16 kcal/mol
7,TTGTGCACGTGGTTAT,-0.03 kcal/mol
8,TGTATCACGTGGTATG,0.05 kcal/mol
9,CCGGGCACGTGGAGTT,-0.13 kcal/mol
10,AGGTTCACGTGTGATA,0.38 kcal/mol
11,GTGTTCACGTGGAAGC,0.35 kcal/mol
12,ATTGACACGTGTAGGC,0.06 kcal/mol
13,TTTGTCACGTGAACGG,0.4 kcal/mol
14,CTGAGCACGTGGCGTT,-0.17 kcal/mol
15,CCATACACGTGTGGGT,0.3 kcal/mol
16,GCTCTCACGTGTGGGT,0.18 kcal/mol
17,TTTTGCACGTGTTATT,0.14 kcal/mol
18,ATACTCACGTGTGTCG,0.35 kcal/mol
19,GAGGTCACGTGGAGAG,0.24 kcal/mol
20,TGGAGCACGTGAACGG,0.13 kcal/mol
21,CAAGGCACGTGGTGCG,-0.19 kcal/mol
22,GTCTGCACGTGTTAGT,0.14 kcal/mol
23,GTAAACACGTGGGTTT,0 kcal/mol
24,TTGCGCACGTGTCAGG,-0.14 kcal/mol
25,GAAGTCACGTGGGTCG,-0.08 kcal/mol
26,TGATACACGTGGTCAG,-0.04 kcal/mol

row,Sequence,relative binding free energy
1,GTCGGCACGTGGCGGA,-0.04 kcal/mol
2,GTTGACACGTGTAGAA,0.35 kcal/mol
3,TTCATCACGTGGGGTG,0.12 kcal/mol
4,GAGATCACGTGGTGGT,0.11 kcal/mol
5,TAGTTCACGTGTGTCT,0.42 kcal/mol
6,GGTTTCACGTGGTAGA,0.33 kcal/mol
7,TGTAACACGTGAGGGC,0.24 kcal/mol
8,GTGAACACGTGTATTG,0.14 kcal/mol
9,GTATGCACGTGTCGAG,0.03 kcal/mol
10,GGTGGCACGTGGCGCT,-0.15 kcal/mol
11,GGGTTCACGTGGAAAG,0.43 kcal/mol
12,GGCTTCACGTGTCGGG,0.3 kcal/mol
13,ATTTTCACGTGTTTGA,0.19 kcal/mol
14,TGTGTCACGTGGGTCG,-0.01 kcal/mol
15,GTGTACACGTGTAGGT,0.01 kcal/mol
16,AATGGCACGTGACAGT,0 kcal/mol
17,GAGTACACGTGGGTAG,0.02 kcal/mol
18,TTTTTCACGTGTGGAG,0.35 kcal/mol
19,ATATGCACGTGGTGAA,-0.16 kcal/mol
20,GCTGGCACGTGGTGCT,-0.08 kcal/mol
21,GGACTCACGTGTGGGA,0.04 kcal/mol
22,TGAACCACGTGTGGTT,0.05 kcal/mol
23,ATGTGCACGTGTAGTT,0.03 kcal/mol
24,GTTGCCACGTGGTGCG,-0.12 kcal/mol
25,GTTGTCACGTGGGCCA,0.05 kcal/mol
26,TTTAACACGTGAAGTA,0.34 kcal/mol

row,Sequence,relative binding free energy
1,TGCGCCACGTGGGGAT,-0.12 kcal/mol
2,TTAGGCACGTGATGGC,-0.12 kcal/mol
3,TTTGGCACGTGCGATT,-0.1 kcal/mol
4,AGATTCACGTGATAGT,0.26 kcal/mol
5,GTTTACACGTGGTTTC,0.24 kcal/mol
6,TTTGACACGTGCTCGT,0 kcal/mol
7,GTGAACACGTGGGATT,0.08 kcal/mol
8,TGATACACGTGGGGCC,0.12 kcal/mol
9,AGTGTCACGTGTGTAG,0.09 kcal/mol
10,GTTAGCACGTGTGGGA,-0.05 kcal/mol
11,GGGGGCACGTGTTTCT,0.01 kcal/mol
12,ATGAACACGTGGGTGT,-0.25 kcal/mol
13,AGGCTCACGTGGGGAG,0.21 kcal/mol
14,TGCATCACGTGTGTTG,0.12 kcal/mol
15,TTGCTCACGTGCGGGA,0.16 kcal/mol
16,GGTTGCACGTGCAGTG,-0.08 kcal/mol
17,ATTGACACGTGGACGT,-0.08 kcal/mol
18,TGGATCACGTGTAGAT,0.46 kcal/mol
19,CTTGTCACGTGGTCGA,0.04 kcal/mol
20,GGCAGCACGTGTGTGA,-0.05 kcal/mol
21,TTGAACACGTGTTTGT,0.06 kcal/mol
22,TTTATCACGTGTGTCC,0.17 kcal/mol
23,GCCGTCACGTGTTTTT,0.17 kcal/mol
24,TGGAACACGTGGTTTT,0.02 kcal/mol
25,TTGGTCACGTGTGTAC,0.19 kcal/mol
26,TAGTTCACGTGCTCGG,0.27 kcal/mol

row,Sequence,relative binding free energy
1,TTTTCCACGTGTGGCG,0.17 kcal/mol
2,TCGGTCACGTGGGTCT,-0.02 kcal/mol
3,AGACACACGTGTGTTT,0.26 kcal/mol
4,GTGTGCACGTGAATCG,0.2 kcal/mol
5,GTTTTCACGTGCGTAA,0.22 kcal/mol
6,TTTACCACGTGGGGGA,-0.22 kcal/mol
7,TTTAACACGTGAGTCG,0.18 kcal/mol
8,CATGGCACGTGAGAGT,0.14 kcal/mol
9,AGTGGCACGTGTGCTA,-0.07 kcal/mol
10,CTAGTCACGTGGGTGA,-0.1 kcal/mol
11,AAGGACACGTGAATTT,0.32 kcal/mol
12,TGTGTCACGTGCGCTT,-0.01 kcal/mol
13,TCAAGCACGTGGTGTA,-0.19 kcal/mol
14,TGAAGCACGTGGCTTG,-0.08 kcal/mol
15,TCAGTCACGTGGAAAT,0.37 kcal/mol
16,TTGATCACGTGTATGA,0.08 kcal/mol
17,GGGAACACGTGGTGGT,-0.02 kcal/mol
18,ATGGGCACGTGAGCTT,-0.01 kcal/mol
19,TACGTCACGTGGATTG,0.01 kcal/mol
20,TGCAACACGTGCGGGG,-0.13 kcal/mol
21,AACGTCACGTGATTGT,0.16 kcal/mol
22,GGGGCCACGTGGAAGG,0.11 kcal/mol
23,CTGAACACGTGTTGTT,0.05 kcal/mol
24,AGTGTCACGTGGCATG,-0.08 kcal/mol
25,GTCGTCACGTGGAGCG,0.16 kcal/mol
26,ATTGTCACGTGTTCGC,0.05 kcal/mol

row,Sequence,relative binding free energy
1,CGAGGCACGTGTGTTT,-0.09 kcal/mol
2,TGTGTCACGTGTCAGG,0.07 kcal/mol
3,TATTACACGTGTCATG,0.17 kcal/mol
4,GCCGTCACGTGGTGGG,0.06 kcal/mol
5,TTAAGCACGTGATGTT,-0.02 kcal/mol
6,TGATTCACGTGTGATA,0.25 kcal/mol
7,AGTGTCACGTGTGTCC,0 kcal/mol
8,GGACGCACGTGATGGA,0.13 kcal/mol
9,GACTTCACGTGTTGGT,0.45 kcal/mol
10,GGAAACACGTGAGGGC,0.34 kcal/mol
11,GTTCACACGTGTGGAG,0.11 kcal/mol
12,GTTGTCACGTGAGGGG,0.43 kcal/mol
13,TCGGTCACGTGAGTCT,0.19 kcal/mol
14,TATAGCACGTGGTTGA,-0.09 kcal/mol
15,GATGGCACGTGTTGAA,0.07 kcal/mol
16,GCGATCACGTGTATGT,0.21 kcal/mol
17,CGTCGCACGTGATGGG,-0.09 kcal/mol
18,ATAAGCACGTGGTTAG,-0.28 kcal/mol
19,GTAGACACGTGTAGTT,0.13 kcal/mol
20,AACTTCACGTGAGGGT,0.18 kcal/mol
21,GGCGTCACGTGATATG,0.31 kcal/mol
22,GTTGGCACGTGAAGAG,0.13 kcal/mol
23,CATCGCACGTGTGGGT,0.1 kcal/mol
24,GATGGCACGTGGCACG,-0.11 kcal/mol
25,TGGTGCACGTGTGCTT,-0.07 kcal/mol
26,ATTATCACGTGCGGCG,0.22 kcal/mol

row,Sequence,relative binding free energy
1,TCACTCACGTGTGTTG,0.23 kcal/mol
2,GTGTGCACGTGACGTG,-0.01 kcal/mol
3,GGATGCACGTGTATGA,0.21 kcal/mol
4,AGGGTCACGTGGTTAG,0 kcal/mol
5,AGGCGCACGTGAGGTA,0.17 kcal/mol
6,GTGCGCACGTGTTAAG,-0.05 kcal/mol
7,AGGGACACGTGCAAGT,0.07 kcal/mol
8,GTCTGCACGTGGGTCT,-0.18 kcal/mol
9,GTGTACACGTGCTGGC,0.08 kcal/mol
10,GACATCACGTGTTGTG,0.06 kcal/mol
11,TTCGTCACGTGAGGTA,0.24 kcal/mol
12,GAAACCACGTGGGTGT,-0.11 kcal/mol
13,CGAGGCACGTGAGATT,0.33 kcal/mol
14,TACTGCACGTGGTGAT,-0.17 kcal/mol
15,TGATGCACGTGTAGTC,0.03 kcal/mol
16,ATGATCACGTGTTTTG,0.13 kcal/mol
17,TGCGTCACGTGGGATG,0.02 kcal/mol
18,GGTGACACGTGGTATT,0.13 kcal/mol
19,GCGATCACGTGGTGAG,0.31 kcal/mol
20,GAGGTCACGTGGGCTT,0 kcal/mol
21,GTAGGCACGTGTTAGC,-0.11 kcal/mol
22,CTAGGCACGTGGATAG,-0.13 kcal/mol
